Test results published in the supplement of paper PMC8728848.
This is one part of the list.

What was measured:
Test in all cases: glycan array binding signal (z-score within array); higher = stronger binding
Details in all cases: glycan notation: IUPAC condensed, linker removed
[1] = target: Fuc(a1-2)[Gal(a1-3)]Gal(b1-4)GlcNAc(b1-2)Man(a1-3)[Fuc(a1-2)[Gal(a1-3)]Gal(b1-4)GlcNAc(b1-2)Man(a1-6)]Man(b1-4)GlcNAc(b1-4)[Fuc(a1-6)]GlcNAc
Outline: (§1)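 Glycan array data came from 3228 arrays in the Consortium for Functional Glycomics database, and only arrays with an available protein sequence were kept. Glycan names were put into IUPAC-condensed notation, and columns mapping to the same glycan were averaged. The binding signal is a within-array Z-score, averaged across arrays of one protein sequence run at different concentrations or buffers and across linkers. A negative Z-score can be read as non-binding.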

[2] = target: Fuc(a1-2)[Gal(a1-3)]Gal(b1-4)GlcNAc(b1-3)GalNAc
Outline: as §1

[3] = target: Fuc(a1-2)[Gal(a1-3)]Gal(b1-4)GlcNAc(b1-6)GalNAc
Outline: as §1

[4] = target: Fuc(a1-2)[Gal(a1-3)]Gal(b1-4)[Fuc(a1-3)]Glc
Outline: as §1

[5] = target: Fuc(a1-2)[Gal(a1-3)]Gal(b1-4)[Fuc(a1-3)]GlcNAc
Outline: as §1

[6] = target: Fuc(a1-2)[Gal(a1-3)]Gal(b1-4)[Fuc(a1-3)]GlcNAc(b1-3)GalNAc
Outline: as §1

[7] = target: Fuc(a1-2)[Gal(a1-4)]Gal(b1-4)GlcNAc
Outline: as §1

[8] = target: Fuc(a1-2)[GalNAc(a1-3)]Gal
Outline: as §1

[9] = target: Fuc(a1-2)[GalNAc(a1-3)]Gal(b1-3)GalNAc(a1-3)[Fuc(a1-2)]Gal(b1-4)GlcNAc
Outline: as §1

[10] = target: Fuc(a1-2)[GalNAc(a1-3)]Gal(b1-3)GalNAc(b1-3)Gal(a1-4)Gal(b1-4)Glc
Outline: as §1

[11] = target: Fuc(a1-2)[GalNAc(a1-3)]Gal(b1-3)GlcNAc
Outline: as §1

[12] = target: Fuc(a1-2)[GalNAc(a1-3)]Gal(b1-3)GlcNAc(b1-2)Man(a1-3)[Fuc(a1-2)[GalNAc(a1-3)]Gal(b1-3)GlcNAc(b1-2)Man(a1-6)]Man(b1-4)GlcNAc(b1-4)GlcNAc
Outline: as §1

[13] = target: Fuc(a1-2)[GalNAc(a1-3)]Gal(b1-3)GlcNAc(b1-2)Man(a1-3)[Fuc(a1-2)[GalNAc(a1-3)]Gal(b1-3)GlcNAc(b1-2)Man(a1-6)]Man(b1-4)GlcNAc(b1-4)[Fuc(a1-6)]GlcNAc
Outline: as §1

[14] = target: Fuc(a1-2)[GalNAc(a1-3)]Gal(b1-3)GlcNAc(b1-3)GalNAc
Outline: as §1

[15] = target: Fuc(a1-2)[GalNAc(a1-3)]Gal(b1-3)GlcNAc(b1-6)GalNAc
Outline: as §1

[16] = target: Fuc(a1-2)[GalNAc(a1-3)]Gal(b1-4)Glc
Outline: as §1

[17] = target: Fuc(a1-2)[GalNAc(a1-3)]Gal(b1-4)GlcNAc
Outline: as §1

[18] = target: Fuc(a1-2)[GalNAc(a1-3)]Gal(b1-4)GlcNAc(b1-2)Man
Outline: as §1

[19] = target: Fuc(a1-2)[GalNAc(a1-3)]Gal(b1-4)GlcNAc(b1-2)Man(a1-3)[Fuc(a1-2)[GalNAc(a1-3)]Gal(b1-4)GlcNAc(b1-2)Man(a1-6)]Man(b1-4)GlcNAc(b1-4)GlcNAc
Outline: as §1

[20] = target: Fuc(a1-2)[GalNAc(a1-3)]Gal(b1-4)GlcNAc(b1-2)Man(a1-3)[Fuc(a1-2)[GalNAc(a1-3)]Gal(b1-4)GlcNAc(b1-2)Man(a1-6)]Man(b1-4)GlcNAc(b1-4)[Fuc(a1-6)]GlcNAc
Outline: as §1

[21] = target: Fuc(a1-2)[GalNAc(a1-3)]Gal(b1-4)GlcNAc(b1-3)Gal(b1-4)GlcNAc
Outline: as §1

[22] = target: Fuc(a1-2)[GalNAc(a1-3)]Gal(b1-4)GlcNAc(b1-3)Gal(b1-4)GlcNAc(b1-3)Gal(b1-4)GlcNAc
Outline: as §1

[23] = target: Fuc(a1-2)[GalNAc(a1-3)]Gal(b1-4)GlcNAc(b1-3)GalNAc
Outline: as §1

[24] = target: Fuc(a1-2)[GalNAc(a1-3)]Gal(b1-4)GlcNAc(b1-3)[Fuc(a1-2)[GalNAc(a1-3)]Gal(b1-4)GlcNAc(b1-6)]GalNAc
Outline: as §1

[25] = target: Fuc(a1-2)[GalNAc(a1-3)]Gal(b1-4)GlcNAc(b1-6)GalNAc
Outline: as §1

[26] = target: Fuc(a1-2)[GalNAc(a1-3)]Gal(b1-4)[Fuc(a1-3)]GlcNAc
Outline: as §1

[27] = target: Fuc(a1-2)[GalNAc(a1-3)]Gal(b1-4)[Fuc(a1-3)]GlcNAc(b1-3)GalNAc
Outline: as §1

[28] = target: Fuc(a1-2)[GalNAc(a1-4)]Gal(b1-4)GlcNAc
Outline: as §1

[29] = target: Fuc(a1-2)[GalNAc(b1-3)]Gal
Outline: as §1

Fuc(a1-3)GlcNAc = target: Fuc(a1-3)GlcNAc
Outline: as §1

[30] = target: Fuc(a1-3)[Gal(b1-4)]Glc6S
Outline: as §1

[31] = target: Fuc(a1-3)[Gal(b1-4)]GlcNAc
Outline: as §1

[32] = target: Fuc(a1-3)[Gal(b1-4)]GlcNAc(b1-2)Man
Outline: as §1

[33] = target: Fuc(a1-3)[Gal(b1-4)]GlcNAc(b1-2)Man(a1-3)[Fuc(a1-3)[Gal(b1-4)]GlcNAc(b1-2)Man(a1-6)]Man(b1-4)GlcNAc(b1-4)GlcNAc
Outline: as §1

[34] = target: Fuc(a1-3)[Gal(b1-4)]GlcNAc(b1-2)Man(a1-3)[Fuc(a1-3)[Gal(b1-4)]GlcNAc(b1-2)Man(a1-6)]Man(b1-4)GlcNAc(b1-4)[Fuc(a1-6)]GlcNAc
Outline: as §1

[35] = target: Fuc(a1-3)[Gal(b1-4)]GlcNAc(b1-3)Gal(b1-3)[Fuc(a1-4)]GlcNAc
Outline: as §1

[36] = target: Fuc(a1-3)[Gal(b1-4)]GlcNAc(b1-3)GalNAc
Outline: as §1

[37] = target: Fuc(a1-3)[Gal(b1-4)]GlcNAc(b1-4)Gal(b1-4)[Fuc(a1-3)]GlcNAc
Outline: as §1

[38] = target: Fuc(a1-3)[Gal(b1-4)]GlcNAc(b1-4)Gal(b1-4)[Fuc(a1-3)]GlcNAc(b1-4)Gal(b1-4)[Fuc(a1-3)]GlcNAc
Outline: as §1

[39] = target: Fuc(a1-3)[Gal(b1-4)]GlcNAc(b1-6)GalNAc
Outline: as §1

[40] = target: Fuc(a1-3)[Gal(b1-4)]GlcNAc(b1-6)[Gal(b1-3)GlcNAc(b1-3)]Gal(b1-4)Glc
Outline: as §1

[41] = target: Fuc(a1-3)[Gal(b1-4)]GlcNAc6S
Outline: as §1

[42] = target: Fuc(a1-3)[Gal3S(b1-4)]Glc
Outline: as §1

[43] = target: Fuc(a1-3)[Gal3S(b1-4)]GlcNAc
Outline: as §1

[44] = target: Fuc(a1-3)[Gal3S(b1-4)]GlcNAc6S
Outline: as §1

[45] = target: Fuc(a1-3)[GalNAc(b1-4)]GlcNAc
Outline: as §1

[46] = target: Fuc(a1-3)[GalNAc(b1-4)]GlcNAc6S
Outline: as §1

Fuc(a1-4)GlcNAc = target: Fuc(a1-4)GlcNAc
Outline: as §1

Fuc(b1-3)GlcNAc = target: Fuc(b1-3)GlcNAc
Outline: as §1

Gal(a1-2)Gal = target: Gal(a1-2)Gal
Outline: as §1

Gal(a1-3)Gal = target: Gal(a1-3)Gal
Outline: as §1

Gal(a1-3)Gal(b1-3)GlcNAc = target: Gal(a1-3)Gal(b1-3)GlcNAc
Outline: as §1

[47] = target: Gal(a1-3)Gal(b1-3)GlcNAc(b1-2)Man
Outline: as §1

[48] = target: Gal(a1-3)Gal(b1-3)GlcNAc(b1-2)Man(a1-3)[Gal(a1-3)Gal(b1-3)GlcNAc(b1-2)Man(a1-6)]Man(b1-4)GlcNAc(b1-4)GlcNAc
Outline: as §1

[49] = target: Gal(a1-3)Gal(b1-3)GlcNAc(b1-3)GalNAc
Outline: as §1

[50] = target: Gal(a1-3)Gal(b1-3)GlcNAc(b1-6)GalNAc
Outline: as §1

[51] = target: Gal(a1-3)Gal(b1-3)[Fuc(a1-4)]GlcNAc(b1-2)Man(a1-3)[Gal(a1-3)Gal(b1-3)[Fuc(a1-4)]GlcNAc(b1-2)Man(a1-6)]Man(b1-4)GlcNAc(b1-4)GlcNAc
Outline: as §1

Gal(a1-3)Gal(b1-4)Glc = target: Gal(a1-3)Gal(b1-4)Glc
Outline: as §1

Gal(a1-3)Gal(b1-4)GlcNAc = target: Gal(a1-3)Gal(b1-4)GlcNAc
Outline: as §1

[52] = target: Gal(a1-3)Gal(b1-4)GlcNAc(b1-2)Man
Outline: as §1

B1: Pbx1 (Cryptococcus neoformans) (protein)
chain: ATTKCLVSGDQDSINNALALGGEGTTVTLCPGSVHRLNSSIIFTAPSQTLTTLGNPKDRNRAMLVVDGEDLACAIRADCKQCSHAMIRSLVIDGNRPQLLRIPKGDALIEVGNAESQTVRDCKLYEPRGWSALHFREGDERQCRFGHIVDNEIGPCGEEWDDEYDSMDETKPLWGNPRADGISLACKDSIVERNVVYDATDGAIVLFGSAGSTVKNNHVYARTRVILGGINLVDYEPWDGDYTNVKVHHNHLYALGRYFKVGIVIGPASWSDDTESVVHSASVTDNEFSGGYWGYGIVVASAKNFEVLRNKVIWDGEQGVARFSGVPGSRCPKAPENGKPTAFLINRGSAKGIFQDDFVNGEVQHIICLNPDQDPPYKPWRFRDSPEAIAAKQAENPTANSAFDSRIAEALVSYQMSLLNSMDAMTQKVEHLTNPIVDDALPFVHEHERAEADKKARQEASRKEKESGNKDVDMLNVKVEELEKSGRRLKKALDGLKSDFEGLSGRLKKSADENKPIIETIFVTSQNLLLGATSQQN
[1]
  glycan array binding signal (z-score): 1.09
[2]
  glycan array binding signal (z-score): 0.041
[3]
  glycan array binding signal (z-score): 0.284
[4]
  glycan array binding signal (z-score): -0.081
[5]
  glycan array binding signal (z-score): -0.231
[6]
  glycan array binding signal (z-score): 0.55
[7]
  glycan array binding signal (z-score): 0.002
[8]
  glycan array binding signal (z-score): -0.406
[9]
  glycan array binding signal (z-score): -0.158
[10]
  glycan array binding signal (z-score): -0.549
[11]
  glycan array binding signal (z-score): -0.199
[12]
  glycan array binding signal (z-score): 0.576
[13]
  glycan array binding signal (z-score): -0.719
[14]
  glycan array binding signal (z-score): -0.307
[15]
  glycan array binding signal (z-score): -0.596
[16]
  glycan array binding signal (z-score): -0.538
[17]
  glycan array binding signal (z-score): -0.547
[18]
  glycan array binding signal (z-score): -0.397
[19]
  glycan array binding signal (z-score): -0.084
[20]
  glycan array binding signal (z-score): -0.093
[21]
  glycan array binding signal (z-score): -0.45
[22]
  glycan array binding signal (z-score): 1.2
[23]
  glycan array binding signal (z-score): -0.042
[24]
  glycan array binding signal (z-score): -0.35
[25]
  glycan array binding signal (z-score): 0.252
[26]
  glycan array binding signal (z-score): 0.016
[27]
  glycan array binding signal (z-score): 1.65
[28]
  glycan array binding signal (z-score): 0.277
[29]
  glycan array binding signal (z-score): -0.182
Fuc(a1-3)GlcNAc
  glycan array binding signal (z-score): -0.718
[30]
  glycan array binding signal (z-score): 0.382
[31]
  glycan array binding signal (z-score): -0.605
[32]
  glycan array binding signal (z-score): -0.043
[33]
  glycan array binding signal (z-score): 0.019
[34]
  glycan array binding signal (z-score): 1.46
[35]
  glycan array binding signal (z-score): -0.985
[36]
  glycan array binding signal (z-score): 0.997
[37]
  glycan array binding signal (z-score): 0.596
[38]
  glycan array binding signal (z-score): 0.276
[39]
  glycan array binding signal (z-score): 2.34
[40]
  glycan array binding signal (z-score): -0.738
[41]
  glycan array binding signal (z-score): 0.038
[42]
  glycan array binding signal (z-score): -0.501
[43]
  glycan array binding signal (z-score): 0.636
[44]
  glycan array binding signal (z-score): 0.635
[45]
  glycan array binding signal (z-score): -0.199
[46]
  glycan array binding signal (z-score): -0.113
Fuc(a1-4)GlcNAc
  glycan array binding signal (z-score): -0.495
Fuc(b1-3)GlcNAc
  glycan array binding signal (z-score): -0.308
Gal(a1-2)Gal
  glycan array binding signal (z-score): 0.197
Gal(a1-3)Gal
  glycan array binding signal (z-score): -0.553
Gal(a1-3)Gal(b1-3)GlcNAc
  glycan array binding signal (z-score): -0.267
[47]
  glycan array binding signal (z-score): 1.04
[48]
  glycan array binding signal (z-score): -0.308
[49]
  glycan array binding signal (z-score): -0.71
[50]
  glycan array binding signal (z-score): -0.38
[51]
  glycan array binding signal (z-score): 0.645
Gal(a1-3)Gal(b1-4)Glc
  glycan array binding signal (z-score): -0.233
Gal(a1-3)Gal(b1-4)GlcNAc
  glycan array binding signal (z-score): -0.019
[52]
  glycan array binding signal (z-score): 0.052
